This is one part of the list. Rule as the data show it: active = 3.2 or more and inactive = the rest. The signal is at background level for most entries.
B1: ZO2_HUMAN_574 (peptide)
chain: VREDAVLYLLEIPKG
B2: NegativeControl01_Phe (peptide)
chain: GQLTFLNFGFMTHNA
B3: NegativeControl02_Phe (peptide)
chain: FDFSGWKFDHAAATP
B4: NegativeControl03_Phe (peptide)
chain: FTLRCPCFLLCMCES
B5: NegativeControl04_Ala (peptide)
chain: SVHDAFEACPEFWDK
B6: BCR_HUMAN_554_YA (peptide)
chain: FFKVPELYEIHKEFA
B7: NegativeControl07_Ala (peptide)
chain: FCTVFFNADWLTWPP
B8: NegativeControl07_Phe (peptide)
chain: FCTVFFNFDWLTWPP
B9: NegativeControl08_Ala (peptide)
chain: KMAPFATASFWAQCI
B10: NegativeControl09_Ala (peptide)
chain: IVMSRAKANGDSKVN
B11: NegativeControl09_Phe (peptide)
chain: IVMSRAKFNGDSKVN
B12: NegativeControl10_Ala (peptide)
chain: AGHQDNFAFAIPIGN
B13: NegativeControl10_Phe (peptide)
chain: AGHQDNFFFAIPIGN
B14: NegativeControl11_Ala (peptide)
chain: CFSKDKVAGDFFKVC
B15: BCR_HUMAN_644 (peptide)
chain: NSLETLLYKPVDRVT
B16: NegativeControl12_Ala (peptide)
chain: TLQQRCFANPNFTST
B17: NegativeControl12_Phe (peptide)
chain: TLQQRCFFNPNFTST
B18: BLNK_HUMAN_189 (peptide)
chain: VEDNDENYIHPTESS

Molecular target: SHP2 C-SH2 domain E139D
Assay: enrichment score (SH2-bound / input frequency) (ratio); bacterial display of known human phosphotyrosine sites (pTyr-Var adds point mutants) read by sequencing; higher = stronger binding; tyrosines were phosphorylated by kinases first
Conditions: peptide library: Human pTyr
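Also: displayed peptides selected on beads carrying the immobilized SH2 domain, with library peptides lacking any tyrosine serving as negative controls.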

Binder	enrichment score
B1	inactive: 1.37
B2	inactive: 2.09
B3	inactive: 0.989
B4	inactive: 2.25
B5	inactive: 1.05
B6	inactive: 1.67
B7	inactive: 2.26
B8	inactive: 2.91
B9	inactive: 1.42
B10	inactive: 0.713
B11	inactive: 0.741
B12	inactive: 0.74
B13	inactive: 0.802
B14	inactive: 0.964
B15	inactive: 0.614
B16	inactive: 1.07
B17	inactive: 0.978
B18	inactive: 1.23

Molecular target: SHP2 C-SH2 domain wild-type
Assay: as above
Conditions: peptide library: Human pTyr

Binder	enrichment score
B1	inactive: 1.32
B2	inactive: 2.19
B3	inactive: 0.987
B4	inactive: 2.33
B5	inactive: 0.777
B6	inactive: 1.28
B7	inactive: 2.07
B8	inactive: 2.8
B9	inactive: 1.29
B10	inactive: 0.607
B11	inactive: 0.601
B12	inactive: 0.688
B13	inactive: 1.03
B14	inactive: 0.985
B15	inactive: 0.753
B16	inactive: 1.07
B17	inactive: 0.986
B18	inactive: 1.6

Molecular target: SHP2 N-SH2 domain L43F
Assay: as above
Conditions: peptide library: Human pTyr

Binder	enrichment score
B1	inactive: 1.16
B2	inactive: 2.18
B3	inactive: 0.844
B4	inactive: 2.28
B5	inactive: 0.939
B6	inactive: 1.48
B7	inactive: 2.11
B8	inactive: 3.11
B9	inactive: 1.3
B10	inactive: 0.628
B11	inactive: 0.718
B12	inactive: 1.12
B13	inactive: 1.24
B14	inactive: 1.07
B15	inactive: 0.641
B16	inactive: 1.17
B17	inactive: 1.19
B18	inactive: 1.03

Molecular target: SHP2 N-SH2 domain T42A
Assay: as above
Conditions: peptide library: Human pTyr

Binder	enrichment score
B1	inactive: 1.35
B2	inactive: 1.28
B3	inactive: 1.18
B4	inactive: 2.27
B5	inactive: 1
B6	inactive: 1.29
B7	inactive: 2.07
B8	inactive: 2.33
B9	inactive: 1.34
B10	inactive: 0.613
B11	inactive: 0.667
B12	inactive: 0.751
B13	inactive: 1.38
B14	inactive: 0.722
B15	inactive: 0.744
B16	inactive: 0.964
B17	inactive: 1.44
B18	inactive: 0.943

Molecular target: SHP2 N-SH2 domain T52S
Assay: as above
Conditions: peptide library: Human pTyr

Binder	enrichment score
B1	inactive: 1.37
B2	inactive: 1.98
B3	inactive: 0.982
B4	inactive: 2.37
B5	inactive: 1.1
B6	inactive: 1.22
B7	inactive: 2.42
B8	active: 3.35
B9	inactive: 1.4
B10	inactive: 0.67
B11	inactive: 0.636
B12	inactive: 1.23
B13	inactive: 0.981
B14	inactive: 0.863
B15	inactive: 0.596
B16	inactive: 1.39
B17	inactive: 1.24
B18	inactive: 1.67

Molecular target: SHP2 N-SH2 domain wild-type
Assay: as above
Conditions: peptide library: Human pTyr

Binder	enrichment score
B1	inactive: 1.5
B2	inactive: 1.88
B3	inactive: 0.923
B4	inactive: 3.12
B5	inactive: 0.951
B6	inactive: 1.49
B7	inactive: 2.68
B8	inactive: 3.08
B9	inactive: 1.56
B10	inactive: 0.673
B11	inactive: 0.669
B12	inactive: 0.871
B13	inactive: 1.51
B14	inactive: 0.87
B15	inactive: 0.717
B16	inactive: 1.34
B17	inactive: 1.68
B18	inactive: 1.27

Source: the supplement of paper PMC10369915
